The list shows a part of the results.
Experiments:
Experiment in all cases: glycan array binding signal (z-score within array); higher = stronger binding
Conditions in all cases: glycan notation: IUPAC condensed, linker removed
[1] = biological target: Neu5Ac(a2-3)Gal(b1-3)GlcNAc
Procedure, shortened: (§1)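 The binding signal is a Z-score computed within each array. Data were drawn from 3228 arrays in the Consortium for Functional Glycomics database, restricted to those with a known protein sequence. Scores were averaged over arrays of the same protein sequence at different concentrations or buffers, and over linkers, and negative values can be taken as non-binding.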

[2] = biological target: Neu5Ac(a2-3)Gal(b1-3)GlcNAc(b1-2)Man
Procedure, shortened: as §1

[3] = biological target: Neu5Ac(a2-3)Gal(b1-3)GlcNAc(b1-2)Man(a1-3)[GlcNAc(b1-4)][Neu5Ac(a2-3)Gal(b1-3)GlcNAc(b1-2)Man(a1-6)]Man(b1-4)GlcNAc(b1-4)GlcNAc
Procedure, shortened: as §1

[4] = biological target: Neu5Ac(a2-3)Gal(b1-3)GlcNAc(b1-2)Man(a1-3)[Neu5Ac(a2-3)Gal(b1-3)GlcNAc(b1-2)Man(a1-6)]Man(b1-4)GlcNAc(b1-4)GlcNAc
Procedure, shortened: as §1

[5] = biological target: Neu5Ac(a2-3)Gal(b1-3)GlcNAc(b1-2)[Neu5Ac(a2-3)Gal(b1-3)GlcNAc(b1-4)]Man(a1-6)[Neu5Ac(a2-3)Gal(b1-3)GlcNAc(b1-2)Man(a1-3)]Man(b1-4)GlcNAc(b1-4)GlcNAc
Procedure, shortened: as §1

[6] = biological target: Neu5Ac(a2-3)Gal(b1-3)GlcNAc(b1-3)Gal(b1-3)GlcNAc
Procedure, shortened: as §1

[7] = biological target: Neu5Ac(a2-3)Gal(b1-3)GlcNAc(b1-3)Gal(b1-4)GlcNAc
Procedure, shortened: as §1

[8] = biological target: Neu5Ac(a2-3)Gal(b1-3)GlcNAc(b1-3)GalNAc
Procedure, shortened: as §1

[9] = biological target: Neu5Ac(a2-3)Gal(b1-3)GlcNAc(b1-6)GalNAc
Procedure, shortened: as §1

[10] = biological target: Neu5Ac(a2-3)Gal(b1-3)GlcNAc6S
Procedure, shortened: as §1

[11] = biological target: Neu5Ac(a2-3)Gal(b1-3)[Fuc(a1-4)]GlcNAc
Procedure, shortened: as §1

[12] = biological target: Neu5Ac(a2-3)Gal(b1-3)[Fuc(a1-4)]GlcNAc(b1-3)Gal(b1-3)[Fuc(a1-4)]GlcNAc
Procedure, shortened: as §1

[13] = biological target: Neu5Ac(a2-3)Gal(b1-3)[Fuc(a1-4)]GlcNAc(b1-3)Gal(b1-4)[Fuc(a1-3)]GlcNAc
Procedure, shortened: as §1

[14] = biological target: Neu5Ac(a2-3)Gal(b1-3)[GlcNAc(b1-6)]GalNAc
Procedure, shortened: as §1

[15] = biological target: Neu5Ac(a2-3)Gal(b1-3)[Neu5Ac(a2-6)]GalNAc
Procedure, shortened: as §1

[16] = biological target: Neu5Ac(a2-3)Gal(b1-3)[Neu5Ac(a2-6)]GlcNAc(b1-3)[Fuc(a1-3)[Gal(b1-4)]GlcNAc(b1-6)]Gal(b1-4)Glc
Procedure, shortened: as §1

[17] = biological target: Neu5Ac(a2-3)Gal(b1-3)]Neu5Ac(a2-3)Gal(b1-4)]GlcNAc
Procedure, shortened: as §1

Neu5Ac(a2-3)Gal(b1-4)Glc = biological target: Neu5Ac(a2-3)Gal(b1-4)Glc
Procedure, shortened: as §1

[18] = biological target: Neu5Ac(a2-3)Gal(b1-4)GlcNAc
Procedure, shortened: as §1

[19] = biological target: Neu5Ac(a2-3)Gal(b1-4)GlcNAc(b1-2)Man
Procedure, shortened: as §1

[20] = biological target: Neu5Ac(a2-3)Gal(b1-4)GlcNAc(b1-2)Man(a1-3)[GlcNAc(b1-4)][Neu5Ac(a2-3)Gal(b1-4)GlcNAc(b1-2)Man(a1-6)]Man(b1-4)GlcNAc(b1-4)GlcNAc
Procedure, shortened: as §1

[21] = biological target: Neu5Ac(a2-3)Gal(b1-4)GlcNAc(b1-2)Man(a1-3)[Neu5Ac(a2-3)Gal(b1-4)GlcNAc(b1-2)Man(a1-6)]Man(b1-4)GlcNAc(b1-4)GlcNAc
Procedure, shortened: as §1

[22] = biological target: Neu5Ac(a2-3)Gal(b1-4)GlcNAc(b1-2)Man(a1-3)[Neu5Ac(a2-3)Gal(b1-4)GlcNAc(b1-2)Man(a1-6)]Man(b1-4)GlcNAc(b1-4)[Fuc(a1-6)]GlcNAc
Procedure, shortened: as §1

[23] = biological target: Neu5Ac(a2-3)Gal(b1-4)GlcNAc(b1-2)Man(a1-3)[Neu5Ac(a2-6)Gal(b1-4)GlcNAc(b1-2)Man(a1-6)]Man(b1-4)GlcNAc(b1-4)GlcNAc
Procedure, shortened: as §1

[24] = biological target: Neu5Ac(a2-3)Gal(b1-4)GlcNAc(b1-2)[Neu5Ac(a2-3)Gal(b1-4)GlcNAc(b1-4)]Man(a1-3)[GlcNAc(b1-4)][Neu5Ac(a2-3)Gal(b1-4)GlcNAc(b1-2)[Neu5Ac(a2-3)Gal(b1-4)GlcNAc(b1-6)]Man(a1-6)]Man(b1-4)GlcNAc(b1-4)GlcNAc
Procedure, shortened: as §1

[25] = biological target: Neu5Ac(a2-3)Gal(b1-4)GlcNAc(b1-2)[Neu5Ac(a2-3)Gal(b1-4)GlcNAc(b1-4)]Man(a1-3)[GlcNAc(b1-4)][Neu5Ac(a2-3)Gal(b1-4)GlcNAc(b1-4)Man(a1-6)]Man(b1-4)GlcNAc(b1-4)GlcNAc
Procedure, shortened: as §1

[26] = biological target: Neu5Ac(a2-3)Gal(b1-4)GlcNAc(b1-2)[Neu5Ac(a2-3)Gal(b1-4)GlcNAc(b1-6)]Man(a1-6)[Neu5Ac(a2-3)Gal(b1-4)GlcNAc(b1-2)Man(a1-3)][GlcNAc(b1-4)]Man(b1-4)GlcNAc(b1-4)GlcNAc
Procedure, shortened: as §1

[27] = biological target: Neu5Ac(a2-3)Gal(b1-4)GlcNAc(b1-3)Gal
Procedure, shortened: as §1

[28] = biological target: Neu5Ac(a2-3)Gal(b1-4)GlcNAc(b1-3)Gal(b1-3)GlcNAc
Procedure, shortened: as §1

[29] = biological target: Neu5Ac(a2-3)Gal(b1-4)GlcNAc(b1-3)Gal(b1-4)GlcNAc
Procedure, shortened: as §1

[30] = biological target: Neu5Ac(a2-3)Gal(b1-4)GlcNAc(b1-3)Gal(b1-4)GlcNAc(b1-2)Man(a1-3)[Neu5Ac(a2-3)Gal(b1-4)GlcNAc(b1-3)Gal(b1-4)GlcNAc(b1-2)Man(a1-6)]Man(b1-4)GlcNAc(b1-4)GlcNAc
Procedure, shortened: as §1

[31] = biological target: Neu5Ac(a2-3)Gal(b1-4)GlcNAc(b1-3)Gal(b1-4)GlcNAc(b1-3)Gal(b1-4)GlcNAc
Procedure, shortened: as §1

[32] = biological target: Neu5Ac(a2-3)Gal(b1-4)GlcNAc(b1-3)Gal(b1-4)GlcNAc(b1-3)Gal(b1-4)GlcNAc(b1-2)Man(a1-3)[Neu5Ac(a2-3)Gal(b1-4)GlcNAc(b1-3)Gal(b1-4)GlcNAc(b1-3)Gal(b1-4)GlcNAc(b1-2)Man(a1-6)]GalNAc
Procedure, shortened: as §1

[33] = biological target: Neu5Ac(a2-3)Gal(b1-4)GlcNAc(b1-3)Gal(b1-4)GlcNAc(b1-3)GalNAc
Procedure, shortened: as §1

[34] = biological target: Neu5Ac(a2-3)Gal(b1-4)GlcNAc(b1-3)Gal(b1-4)GlcNAc(b1-3)[Neu5Ac(a2-3)Gal(b1-4)GlcNAc(b1-3)Gal(b1-4)GlcNAc(b1-6)]GalNAc
Procedure, shortened: as §1

[35] = biological target: Neu5Ac(a2-3)Gal(b1-4)GlcNAc(b1-3)Gal(b1-4)GlcNAc(b1-6)[Gal(b1-3)]GalNAc
Procedure, shortened: as §1

[36] = biological target: Neu5Ac(a2-3)Gal(b1-4)GlcNAc(b1-3)Gal(b1-4)[Fuc(a1-3)]GlcNAc
Procedure, shortened: as §1

[37] = biological target: Neu5Ac(a2-3)Gal(b1-4)GlcNAc(b1-3)GalNAc
Procedure, shortened: as §1

B1: DC-ASGPR-short (Homo sapiens) (protein)
chain: MTRTYENFQYLENKVKVQGFKNGPLPLQSLLQRLRSGPCHLLLSLGLGLLLLVIICVVGFQNSKFQRDLVTLRTDFSNFTSNTVAEIQALTSQGSSLEETIASLKAEVEGFKQERQAVHSEMLLRVQQLVQDLKKLTCQVATLNNNASTEGTCCPVNWVEHQDSCYWFSHSGMSWAEAEKYCQLKNAHLVVINSREEQNFVQKYLGSAYTWMGLSDPEGAWKWVDGTDYATGFQNWKPGQPDDWQGHGLGGGEDCAHFHPDGRWNDDVCQRPYHWVCEAGLGQTSQESH
B1 was tested, and the “glycan array binding signal (z-score)” value [1] was -0.279, the “glycan array binding signal (z-score)” value [2] was -0.272 and the “glycan array binding signal (z-score)” value [3] was -0.262. For the same binder, the “glycan array binding signal (z-score)” value [4] was -0.264, the “glycan array binding signal (z-score)” value [5] was -0.221 and the “glycan array binding signal (z-score)” value [6] was -0.289. For the same binder, the “glycan array binding signal (z-score)” value [7] was -0.286, the “glycan array binding signal (z-score)” value [8] was -0.276 and the “glycan array binding signal (z-score)” value [9] was 5.92. For the same binder, the “glycan array binding signal (z-score)” value [10] was -0.065, the “glycan array binding signal (z-score)” value [11] was -0.258 and the “glycan array binding signal (z-score)” value [12] was -0.215. For the same binder, the “glycan array binding signal (z-score)” value [13] was -0.124, the “glycan array binding signal (z-score)” value [14] was -0.964 and the “glycan array binding signal (z-score)” value [15] was -0.224. For the same binder, the “glycan array binding signal (z-score)” value [16] was -0.26, the “glycan array binding signal (z-score)” value [17] was -0.178 and the “glycan array binding signal (z-score)” value (Neu5Ac(a2-3)Gal(b1-4)Glc) was -0.261. The “glycan array binding signal (z-score)” value [18] was -0.281, the “glycan array binding signal (z-score)” value [19] was -0.027 and the “glycan array binding signal (z-score)” value [20] was -0.272. The “glycan array binding signal (z-score)” value [21] was -0.286, the “glycan array binding signal (z-score)” value [22] was -0.277 and the “glycan array binding signal (z-score)” value [23] was -0.292. For the same binder, the “glycan array binding signal (z-score)” value [24] was -0.271, the “glycan array binding signal (z-score)” value [25] was -0.276 and the “glycan array binding signal (z-score)” value [26] was -0.281. For the same binder, the “glycan array binding signal (z-score)” value [27] was -0.326, the “glycan array binding signal (z-score)” value [28] was -0.282 and the “glycan array binding signal (z-score)” value [29] was -0.282. For the same binder, the “glycan array binding signal (z-score)” value [30] was -0.571, the “glycan array binding signal (z-score)” value [31] was -0.283 and the “glycan array binding signal (z-score)” value [32] was 0.068. For the same binder, the “glycan array binding signal (z-score)” value [33] was -0.238, the “glycan array binding signal (z-score)” value [34] was -0.3 and the “glycan array binding signal (z-score)” value [35] was -0.398. For the same binder, the “glycan array binding signal (z-score)” value [36] was -0.265 and the “glycan array binding signal (z-score)” value [37] was -0.051.
